Test results from PubChem BioAssay AID624170 (National Center for Advancing Translational Sciences (NCATS), 2012).
Among all 410,000 compounds or so, about 850 (0.21%) were called active. The inconclusive results got no clear call from the source; some entries with a clear call stand among them for comparison. The call rests on the fitted dose curve; in most records, active means well fitted inhibition curve with a large enough effect; inconclusive means small, poorly fitted or top-dose-only effect, or another doubt; inactive means no such curve, though single readings can be large or run the other way. No potency is given beside an inconclusive call; the fits are too rough.

What follows are compounds tested against Glutaminase kidney isoform, mitochondrial (Homo sapiens) (UniProt O94925) (assay: qHTS for Inhibitors of Glutaminase (GLS)). Conditions: GLS enzymatic activity, qHTS titration; series mostly up to 45.5 µM.
Sequence of UniProt O94925 (O94925 whole entry, looked up, canonical isoform): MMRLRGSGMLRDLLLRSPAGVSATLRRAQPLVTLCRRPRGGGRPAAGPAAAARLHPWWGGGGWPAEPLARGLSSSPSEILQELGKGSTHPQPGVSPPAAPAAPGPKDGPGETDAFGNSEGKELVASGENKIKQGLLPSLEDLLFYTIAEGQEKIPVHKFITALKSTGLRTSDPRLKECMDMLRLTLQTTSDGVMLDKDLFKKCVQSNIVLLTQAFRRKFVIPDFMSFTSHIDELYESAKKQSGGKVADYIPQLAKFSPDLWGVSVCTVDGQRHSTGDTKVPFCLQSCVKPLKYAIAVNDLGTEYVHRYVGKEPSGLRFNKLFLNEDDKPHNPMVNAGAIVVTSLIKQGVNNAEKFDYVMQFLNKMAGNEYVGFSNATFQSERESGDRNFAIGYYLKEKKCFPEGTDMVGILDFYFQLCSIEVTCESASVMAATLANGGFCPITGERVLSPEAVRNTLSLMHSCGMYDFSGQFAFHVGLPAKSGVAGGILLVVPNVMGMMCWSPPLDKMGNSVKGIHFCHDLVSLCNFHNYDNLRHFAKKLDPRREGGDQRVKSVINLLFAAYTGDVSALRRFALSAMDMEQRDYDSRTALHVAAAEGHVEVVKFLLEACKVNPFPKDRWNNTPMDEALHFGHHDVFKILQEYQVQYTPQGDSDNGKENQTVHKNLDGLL
Procedure, shortened: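 Compounds were pin-transferred onto hKGA, after which L-glutamine (1 mM solution) and a detection mix of glutamate oxidase, HRP and Amplex Red were added. Initial and 30 min RT fluorescence reads were collected.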
Potency means the concentration at half of the fitted maximal effect; tags describe the fitted curve by direction and shape.

SMILES	Potency
C[C@H]1CN([C@@H](C)CO)S(=O)(=O)c2ccc(Br)cc2O[C@H]1CN(C)C(=O)NC1CCCCC1	inactive
C=C(C)[C@H]1CC=C(C)/C(=N/NC(=O)CNc2ccccc2OC)C1	inactive
O=C(CN1C(=O)NC2(CCCC2)C1=O)OCc1ccccc1	inactive
O=C1CN(C(=O)Nc2ccccc2Cl)C(c2ccccc2)c2c(sc3c2CCCC3)N1 (stereo unspecified)	inactive
O=C(CNC1CCCC1)Nc1ccc(N2CCCCCC2)cc1	inconclusive [inhibitor, partial curve]
O=C(/C=C/c1ccc(Br)cc1)c1ccc(NC2=NCCCS2)cc1	inactive
CCC(CO)Oc1cc(NC(=O)c2cccc(C)c2)c2ncn(C(C)C)c2c1 (stereo unspecified)	inconclusive [inhibitor, single point]
CCC(=O)Nc1ccc(Oc2ccc3c(c2)C(=O)N(c2ccc(O)cc2)C3=O)cc1	inconclusive [inhibitor, partial curve]
C=CC[n+]1c(C)csc1Nc1ccc(C)cc1	inconclusive [inhibitor, partial curve, poor fit]
CCCCNC(=O)CC1N=C2c3ccccc3N=C(SCC(=O)Nc3ccc(OC)cc3)N2C1=O (stereo unspecified)	inconclusive [inhibitor, partial curve, poor fit]
CC(C)OCCCNC(=O)CN1C(=O)COc2ccc(S(=O)(=O)N3CCOCC3)cc21	inactive
COc1ccc(NCC(=O)N/N=C2\CCCC(C)C2)cc1 (stereo unspecified)	inconclusive [inhibitor, single point]
CC(C)C(=O)Nc1cccc(C(=O)Nc2nnc(CC(C)(C)C)s2)c1	inactive
Cc1ccc(CN2C(=O)CCC2C(=O)NC(C)C)cc1 (stereo unspecified)	inactive
O=C(O)c1cccc(CN2C(=O)SC(Nc3cccc4ccccc34)C2=O)c1 (stereo unspecified)	inconclusive [inhibitor, partial curve]
COC(=O)C1=C(C)NC(=S)NC1c1ccco1 (stereo unspecified)	inconclusive [inhibitor, partial curve]
O=C(CCCN1C(=O)/C(=C\c2ccccc2)SC1=S)Nc1ccc(O)cc1	inconclusive [inhibitor, partial curve]
O=C(CSc1nnnn1-c1ccc(O)cc1)NC1CCCCC1	inconclusive [inhibitor, single point]
COc1ccc(-c2coc3cc(O)ccc3c2=O)cc1	inconclusive [inhibitor, partial curve, poor fit]
CC(C)OC(=O)c1c(NC(=O)COc2cccc(Br)c2)sc2c1CCCC2	inactive
C=CCOc1ccc(CNc2ccc3[nH]c(=O)[nH]c3c2)cc1OCC	inconclusive [inhibitor, partial curve, poor fit]
COc1ccc2[nH]c(=O)c(CNc3ccc(C)c(C)c3)cc2c1	inconclusive [inhibitor, partial curve]
O=C(/C=C/c1ccco1)NCC(=O)N/N=C/c1ccc([N+](=O)[O-])cc1	inconclusive [inhibitor, single point]

SMILES	Potency
CCCCc1cc(=O)oc2cc(C)c(CN3CCCC3)c(O)c12	inconclusive [inhibitor, single point]
CNC(=O)c1cc(Nc2nnc(-c3ccc(O)cc3)c3ccccc23)ccc1OC	active: 11.2 µM
COc1ccc(C(=O)N/C(=C\c2ccccc2)C(=O)NCCCn2ccnc2)cc1	inactive
CC1=C(C)/C(=N/OC(=O)c2cccc([N+](=O)[O-])c2)C=CC1=O	inactive
O=C(O)Cc1ccc(N=Cc2c(O)ccc3ccccc23)cc1	inconclusive [inhibitor, single point]
CNC(=S)NNc1ccccc1[N+](=O)[O-]	inconclusive [inhibitor, partial curve]
COc1cc2[nH]c(C(=O)N3CCc4ccccc43)cc2c(OC)c1OC	inactive
Cc1nn(-c2ccccn2)c2c1C(=O)C(Br)CC2 (stereo unspecified)	inconclusive [inhibitor, single point]
Cc1nc2ccccc2c2c(N)c3ccccc3n12	inconclusive [inhibitor, single point]
CCOC(=O)c1ccc(/[N+]([O-])=C/c2ccccc2)cc1	inconclusive [inhibitor, single point]
COc1ccc(/C=N/NC(=O)c2ccc(Cl)c(S(N)(=O)=O)c2)cc1OCC(N)=O	inconclusive [inhibitor, single point]
Cc1cc(O)c(C2(O)C(=O)Nc3cc(Br)ccc32)cc1C (stereo unspecified)	inconclusive [inhibitor, single point]
O=C(O)c1ccc2noc(-c3ccccc3)c2c1	inconclusive [inhibitor, single point]
Oc1ccc(N=Cc2ccc(O)c(O)c2)cc1	inconclusive [inhibitor, single point]
COC(=O)C1CCN(CC(=O)Nc2ccccc2Sc2ccccc2)CC1	inconclusive [inhibitor, single point]
CCc1ccc(NC(=O)C(CC)n2c(=O)c(C(F)(F)F)nc3ccccc32)cc1 (stereo unspecified)	inconclusive [inhibitor, partial curve, poor fit]
COC(=O)C1=NN(C(=O)c2ccccc2)C(O)(c2ccc([N+](=O)[O-])cc2)C1 (stereo unspecified)	inconclusive [inhibitor, single point]
Cc1cc(Br)ccc1NC(=S)Nc1cccc([N+](=O)[O-])c1	inactive
O=C1C(O)CC2c3ccccc3CC3(CCCC3)N12 (stereo unspecified)	inconclusive [inhibitor, single point]
COc1ccc(CN2CCN(C(=O)c3ccccc3F)CC2)c(OC)c1OC	inactive
COc1cccc(NC(=O)Cn2c(CCC(=O)O)ccc2-c2ccc(Cl)cc2)c1	inactive
CCCOC(=O)Nc1sc2c(c1C(N)=O)CCCC2	inconclusive [inhibitor, partial curve, poor fit]
Brc1ccc(-c2cn3nc4c(nc3n2)CCCC4)cc1	inactive
